Test results reported in the antibiotic and cytotoxicity screens of Wong et al. (2023).
The other results are listed elsewhere or left out.

Assays:
[1] = tested on: HSkMC (human skeletal muscle cells); assay: cytotoxicity call (relative viability < 0.9); settings: 10 µM
[2] = tested on: HepG2; assay: cytotoxicity call (relative viability < 0.9); settings: 10 µM
[3] = tested on: S. aureus RN4220; assay: growth inhibition call (relative growth <= 0.2); settings: 50 µM

SMILES	cytotoxicity call [1]	cytotoxicity call [2]	growth inhibition call [3]
CN(CC[C@H](N)CC(=O)N[C@H]1C=C[C@@H](n2ccc(N)nc2=O)O[C@@H]1C(=O)O)C(=N)N	inactive	inactive	inactive
CC(C)C[C@@H]1C(=O)N2CCC[C@@H]2[C@]2(O)O[C@@](NC(=O)[C@@H]3C=C4c5cccc6[nH]cc(c56)C[C@@H]4N(C)C3)(C(C)C)C(=O)N12	inactive	inactive	inactive
C[C@@H]1CN([C@H](C)CO)C(=O)c2c(c3ccccc3n2C)-c2ccccc2CO[C@@H]1CN(C)C(=O)Oc1ccccc1	inactive	inactive	inactive
CCCCOC(=O)c1ccccc1C(=O)OCCCC	inactive	active	inactive
C[C@H](CO)N1C[C@H](C)[C@@H](CN(C)C(=O)Oc2cccc3ccccc23)OCc2cnnn2CCCC1=O	inactive	inactive	inactive
O=c1[nH]c(=O)n(Cl)c(=O)n1Cl	inactive	inactive	inactive
CC(C)n1cnnc1CCN	inactive	inactive	inactive
CC(C)(C)[C@H]1CC[C@@]2(CC1)C[C@@H](C[Si](C)(C)C)OO2	inactive	inactive	inactive
CCCCCCCCC(=O)NCc1ccc(O)c(OC)c1	inactive	inactive	inactive
CC(C)(C)C(O)(CCc1ccc(Cl)cc1)Cn1cncn1 (stereo not drawn)	inactive	inactive	inactive
NCCc1nc2ccccc2[nH]1	inactive	inactive	inactive
CCCCC(=O)N1CC[C@H]2CNC[C@H]21	inactive	inactive	inactive
C[C@@H]1O[C@@H](O[C@@H]2C[C@@H](O)[C@]3(CO)[C@H]4[C@H](O)C[C@]5(C)[C@@H](C6=CC(=O)OC6)CC[C@]5(O)[C@@H]4CC[C@]3(O)C2)[C@H](O)[C@H](O)[C@H]1O	active	active	inactive
CC1=NCCc2c1[nH]c1cc(O)ccc21.Cl.O.O	inactive	active	inactive
Cc1ccc(OC(=O)N(C)C[C@@H]2OCc3ccccc3-c3c(n(C)c4ccccc34)C(=O)N([C@H](C)CO)C[C@H]2C)cc1	inactive	inactive	inactive
COc1ccc2c(c1)[nH]c1c(C)nccc12	inactive	active	inactive
COCCCNC(=O)[C@@]1(Cc2ccccc2CN=[N+]=[N-])N=C(c2ccc(OCCCO)cc2)O[C@H]1c1ccccc1N=[N+]=[N-]	inactive	inactive	inactive
O=C([O-])c1ccccc1-c1c2cc(Br)c(=O)cc-2oc2[c]([Hg][OH])c([O-])c(Br)cc12.[Na+].[Na+]	inactive	inactive	inactive
CC(=O)Nc1cc([As](=O)(O)O)ccc1O	inactive	inactive	inactive
CN(C)C(=O)Oc1ccc[n+](C)c1	inactive	inactive	inactive
CC(=O)[O][Cd][O]C(C)=O	inactive	inactive	active
